Screen size: about 310,000 compounds; about 2,200 (0.71%) showed an effect of 50% or more. Effects have a minus sign here. Some of the results follow.
biological target: human ether-à-go-go-related gene (hERG) potassium channel (human, UniProt Q12809); experiment: primary screen, population patch clamp on CHO cells stably expressing hERG
Sequence (Q12809 whole entry, looked up): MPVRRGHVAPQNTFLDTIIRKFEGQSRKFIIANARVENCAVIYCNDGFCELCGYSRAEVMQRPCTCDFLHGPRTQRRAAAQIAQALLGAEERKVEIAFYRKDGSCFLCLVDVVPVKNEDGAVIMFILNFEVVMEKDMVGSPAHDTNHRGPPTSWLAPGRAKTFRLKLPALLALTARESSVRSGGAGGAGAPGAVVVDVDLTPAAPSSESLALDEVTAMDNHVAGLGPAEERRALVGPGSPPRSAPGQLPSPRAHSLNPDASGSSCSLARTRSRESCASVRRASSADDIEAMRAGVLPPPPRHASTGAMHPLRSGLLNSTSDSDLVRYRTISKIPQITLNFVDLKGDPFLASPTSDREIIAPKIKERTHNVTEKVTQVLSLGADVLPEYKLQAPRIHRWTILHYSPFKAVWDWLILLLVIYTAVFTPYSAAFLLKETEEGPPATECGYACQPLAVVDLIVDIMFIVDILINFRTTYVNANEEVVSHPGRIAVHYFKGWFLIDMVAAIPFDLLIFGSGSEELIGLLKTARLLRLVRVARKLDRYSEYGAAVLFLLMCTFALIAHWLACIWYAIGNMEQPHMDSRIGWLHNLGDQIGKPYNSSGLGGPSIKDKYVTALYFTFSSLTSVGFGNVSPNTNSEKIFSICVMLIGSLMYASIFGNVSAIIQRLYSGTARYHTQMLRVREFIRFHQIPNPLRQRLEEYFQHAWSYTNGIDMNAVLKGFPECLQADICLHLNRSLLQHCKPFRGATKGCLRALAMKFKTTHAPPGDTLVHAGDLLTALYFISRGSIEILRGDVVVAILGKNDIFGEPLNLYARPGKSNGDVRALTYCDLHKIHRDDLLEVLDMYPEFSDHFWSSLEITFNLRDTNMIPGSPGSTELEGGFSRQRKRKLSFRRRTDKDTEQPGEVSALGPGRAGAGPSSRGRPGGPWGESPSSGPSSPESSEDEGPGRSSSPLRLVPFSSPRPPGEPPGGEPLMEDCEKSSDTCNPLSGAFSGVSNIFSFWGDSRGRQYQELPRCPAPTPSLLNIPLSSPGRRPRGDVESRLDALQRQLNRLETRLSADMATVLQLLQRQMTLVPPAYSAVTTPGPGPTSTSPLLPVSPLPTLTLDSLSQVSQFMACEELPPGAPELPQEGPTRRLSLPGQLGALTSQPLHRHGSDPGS

Row | SMILES | hERG current change (%, negative = inhibition) at 1uM [%]
1 | COc1ccccc1CCNC1CCCC(C)C1 (stereo not drawn) | 11.5
2 | COc1ccccc1OCC(O)CN1CCN(CC(=O)Nc2c(C)cccc2C)CC1 (stereo not drawn) | -1.27
3 | Cc1ccc(NC(=O)c2cccnc2C(=O)Nc2ccc(C)cc2)cc1 | 16.6
4 | CC(C)C(=O)Nc1cccc(C(=O)Nc2cc([N+](=O)[O-])ccc2F)c1 | 8.26
5 | CCOc1ccc(-n2c(-c3ccc(Cl)cc3)c[n+]3c2SCC3)cc1.[Br-] | -60.8
6 | COc1ccc(C(=O)Nc2ccc(N3CCCC3)cc2)cc1 | -2.01
7 | Cc1nn(CC(=O)N2CCN(c3ccccn3)CC2)c(=O)c2cc3sccc3n12 | 17.6
8 | O=C(COC(=O)c1cccnc1Cl)Nc1ccccc1OC(F)F | 9.23
9 | Cc1ccccc1NC(=O)N1CCC(NC(=O)C2CCCCC2)CC1 | 4.23
10 | O=C1CSC(c2ccccc2)N1CC(O)c1ccc([N+](=O)[O-])cc1 (stereo not drawn) | 5.79
11 | COc1cccc(C2CC(c3ccccc3)n3ncnc3N2)c1 (stereo not drawn) | 1.25
12 | C#CCOCCOCCOCCNc1nc(N2CCN(C(=O)[C@H](CCCC[NH3+])n3cc(CCCC)nn3)CC2)nc(N2CCN(C(=O)[C@H](Cc3ccc(O)cc3)n3cc(CCO)nn3)CC2)n1.[Cl-] | 10.8
13 | CC(C)c1nnc(NC(=O)COc2ccc3ccccc3c2)s1 | -6.26
14 | CCN(Cc1ccncc1)C(=O)c1cc(COc2ccc(F)cc2Cl)on1 | 5.72
15 | Fc1ccccc1N1CCN(c2nc(-c3cccs3)nc3ccccc23)CC1 | 2.81
16 | Cc1ccc(N=c2oc3cc(O)ccc3cc2C(N)=O)cc1 | 8.24
17 | Nc1c(C(=O)c2cccs2)sc2nsc(SCCN3CCCCC3)c12 | 11.8
18 | COc1ccc(C2(O)CC3CCC(C2)N3c2nc(C)cc(C)c2C#N)cc1 (stereo not drawn) | 0.0463
19 | O=C(NCCO)C(=O)c1c(-c2ccccc2)cc2ccccn12 | 9.64
20 | O=C(CN1C(=O)C2(OCCCO2)c2ccccc21)NCc1ccccc1 | -7.26
21 | CNC(=O)c1[nH]cnc1C(=O)Nc1ccc(F)cc1 | 8.94
22 | Cc1nn(-c2ccccc2)c(C)c1NC(=O)Cc1cccs1 | 6.36
23 | CCCOc1ccc(C(=O)Nc2cc(S(=O)(=O)N3CCOCC3)ccc2N2CCOCC2)cc1 | -4.81
24 | CCC(=NCCCN1CCOCC1)c1c(O)n(-c2ccccc2C)c(=O)[nH]c1=O | 10.3
25 | CCCS(=O)(=O)c1c(S(=O)(=O)CCC)c2ccc(C(N)=O)cn2c1C(=O)c1ccccc1 | 12.5
26 | Cc1cc(C)cc(NC(=O)CSc2nc3nc(C)cc(C)c3c(=O)[nH]2)c1 | 11.8
27 | CCCCc1cc(=O)oc2cc(C)cc(OCC(=O)NCc3ccncc3)c12 | -73.8

Row | SMILES | hERG current change (%, negative = inhibition) at 1uM [%]
28 | CCOc1cc([C@H]2[C@@H]3CCCC[C@]3(O)CCN2CC(=O)NCc2ccco2)ccc1O | 8.54
29 | Cc1onc(-c2ccccc2)c1C1=N/C(=C\c2ccccc2F)C(=O)O1 | -0.736
30 | O=C(Nc1ccon1)c1ccc(Cl)c(S(=O)(=O)N2CCCCC2)c1 | 8.74
31 | Cn1c(=O)[nH]c(=O)c2c1nc(SCC(O)CO)n2Cc1ccccc1Cl (stereo not drawn) | 5
32 | O=C(COc1ncnc2cc(Cl)ccc12)c1ccc2c(c1)OCCO2 | 11.8
33 | O=C(Nc1ccccc1)c1cccnc1N1CCOCC1 | 15.7
34 | O=C(COC(=O)C1CCN(/C=C/C(=O)C(F)(F)F)CC1)Nc1ccccc1 | 15.4
35 | S=C(NCc1ccco1)N1CCN(C(c2ccccc2)c2ccccc2)CC1 | 3.75
36 | CCCCN(Cc1ccccc1)C(=O)CCN1C(=O)C2C3C=CC(C3)C2C1=O (stereo not drawn) | 6.56
37 | CCC(C)(C)n1nnnc1C(c1ccc(F)cc1)N1CCC(C(N)=O)CC1.Cl (stereo not drawn) | -14.4
38 | CCS(=O)(=O)c1ncc(Cl)c(C(=O)Nc2ccc(C)cc2)n1 | 20
39 | Cc1ccc(-c2cc(C(=O)N/N=C/c3ccc(F)cc3)n[nH]2)o1 | 6.91
40 | Cn1c(=O)c2c(O)c(C=Nc3ccc(F)cc3)c(=O)n(C)c2n(C)c1=O | 12.1
41 | O=C1OC(OC2CCCCC2)(c2ccccc2)c2ccccc21 (stereo not drawn) | -5.89
42 | Cc1ccc(S(=O)(=O)NCC2CCC(C(=O)O)CC2)cc1 (stereo not drawn) | 3.22
43 | Cc1ccc(C(=O)c2ccc(N3CCOCC3)c(F)c2)cc1 | 3.78
44 | O=C(Nc1ccncc1)c1ccc(NS(=O)(=O)c2ccc3[nH]c(=O)[nH]c3c2)cc1 | 29.2
45 | CC1(C)N=C(N)N=C(N)N1c1ccc(F)cc1F.Cl | 11.1
46 | Cc1ccc(O)c(NC(=O)CCCC(=O)O)c1 | 6.78
47 | NS(=O)(=O)c1ccc(N/N=C/c2ccc3c(c2)OCO3)c([N+](=O)[O-])c1 | 9.69
48 | COc1cc(C(=O)NC(=S)Nc2ccc(Cc3ccncc3)cc2)cc(OC)c1OC | -45.1
49 | COc1ccc(C(=O)Oc2ccc3oc(=O)sc3c2)cc1 | -3.06
50 | C[C@H](NC(=O)c1nc[nH]c1C(=O)N[C@@H](C)C(=O)OC(C)(C)C)C(=O)OCc1ccccc1 | -3.23
51 | Cc1nnc(NC(=O)Cn2cnc3c2c(=O)n(C)c(=O)n3C)s1 | 9.94
52 | C=CCN(C(=O)CCC(=O)Nc1cc(C)on1)C(C(=O)NC(C)(C)C)c1ccc(OC)cc1 (stereo not drawn) | 0.158
53 | O=C(CN1CCCCCC1)Nc1c(Cl)cc(Cl)cc1Cl | 12.1
54 | Cc1ccc(S(=O)(=O)NCC(=O)Nc2ccc3c(c2)OCCO3)cc1 | 17.5

Source: publication PMC4336329 (PLoS ONE, 2015)
